The text below walks through data of the supplement of paper PMC4604168 (melanoma cell lines).

The other results are listed elsewhere or left out. Single values are uncertain, as repeats are few or missing.
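Note: cells treated in 1,536-well plates, then fixed and DAPI-stained, with nuclei counted from automated high-throughput microscope images.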

This experiment relates to A2058. The experiment can be described thus: cell count relative to DMSO control; melanoma cells; higher = more viable cells. To be noted: library dose: standard library concentration; 72 h.
`Cc1ccc(NC(=O)c2cccc(N(C)C)c2)cc1NC(=O)c1ccc(O)cc1` + O=C(O)C(=O)Nc1sc2c(c1C(=O)O)CCNC2 [TCS401] (first compound 10 µM, partner dose 8.33333 µM) returned a cell count of 112%.
The value for `NC(=O)c1ccc(N(C(N)=O)c2c(F)cccc2F)nc1-c1ccc(F)cc1F` + c1cc(-c2cnn3cc(-c4ccc(OCCN5CCCCC5)cc4)cnc23)ccn1 [Dorsomorphin] (first compound 2 µM, partner dose 2 µM) was 85.1%.
The molecule `CC(C)(C)c1cnc(CSc2cnc(NC(=O)C3CCNCC3)s2)o1` + CCN(CC)CCCCNc1ncc2cc(-c3cc(OC)cc(OC)c3)c(NC(=O)NC(C)(C)C)nc2n1 [PD173074] (first compound 0.05 µM, partner dose 0.5 µM) gave a cell count of 82.9%.
`CCCCCCCCc1ccc(CCC(N)(CO)CO)cc1` [fingolimod] + CCc1ccc(CCOc2ccc(CC3SC(=O)NC3=O)cc2)nc1 [pioglitazone] (first compound 10 µM, partner dose 10 µM) came in with a cell count of 3.4%.
The figure for `CCc1ccc(CCOc2ccc(CC3SC(=O)NC3=O)cc2)nc1` (stereo unspecified) [pioglitazone] + O=C1NC(=O)/C(=C/c2ccc(-c3ccc(F)cc3O)o2)S1 [AS252424] (first compound 10 µM, partner dose 5 µM) is 94.9%; for `CCCCCCCCc1ccc(CCC(N)(CO)CO)cc1` [fingolimod] + CCN(CC)CCCCNc1ncc2cc(-c3cc(OC)cc(OC)c3)c(NC(=O)NC(C)(C)C)nc2n1 [PD173074] (first compound 10 µM, partner dose 0.5 µM) it is 7.83%.
As for `COc1cc2c(Oc3ccc4[nH]c(C)cc4c3F)ncnc2cc1OCCCN1CCCC1` [cediranib] + CC(C)CCN1c2nc(Nc3cc(F)c(O)c(F)c3)ncc2N(C)C(=O)C1C [BID1870] (first compound 2 µM, partner dose 1 µM), the cell count stood at 87.9%.
On to `Cc1ccc(NC(=O)c2cccc(N(C)C)c2)cc1NC(=O)c1ccc(O)cc1` + O=C(Nc1ccccc1)c1cc([N+](=O)[O-])ccc1Cl [GW9662] (first compound 10 µM, partner dose 10 µM), for which the cell count turned out to be 88.7%.
The figure for `CCCCCCCCc1ccc(CCC(N)(CO)CO)cc1` [fingolimod] + O=S(=O)(c1ccccc1)N(CC(F)(F)F)c1ccc(C(O)(C(F)(F)F)C(F)(F)F)cc1 [T0901317] (first compound 10 µM, partner dose 7 µM) is 3.7%; for `CN(NC(=O)CC(=O)NN(C)C(=S)c1ccccc1)C(=S)c1ccccc1` + CCN(CC)CCCCNc1ncc2cc(-c3cc(OC)cc(OC)c3)c(NC(=O)NC(C)(C)C)nc2n1 [PD173074] (first compound 0.03 µM, partner dose 0.5 µM) it is 13.3%.
The value for `Cc1ccc(NC(=O)c2cccc(N(C)C)c2)cc1NC(=O)c1ccc(O)cc1` + CC(C)CCN1c2nc(Nc3cc(F)c(O)c(F)c3)ncc2N(C)C(=O)C1C [BID1870] (first compound 10 µM, partner dose 1 µM) was 87.1%.
Turning to `CCCCCCCCc1ccc(CCC(N)(CO)CO)cc1` [fingolimod] + CCCCCCCCCCCC1=C(O)C(=O)C=C(O)C1=O [Embelin] (first compound 10 µM, partner dose 6 µM), the cell count amounted to 10.1%.
Molecule `NC(=O)c1ccc(N(C(N)=O)c2c(F)cccc2F)nc1-c1ccc(F)cc1F` + COc1cc(N2CCC(N3CCN(C)CC3)CC2)ccc1Nc1ncc(Cl)c(Nc2ccccc2S(=O)(=O)C(C)C)n1 [NVP-TAE684] (first compound 2 µM, partner dose 0.4 µM) returned a cell count of 59.7%.
Consider `CC(C)(C)c1cnc(CSc2cnc(NC(=O)C3CCNCC3)s2)o1` + COc1cc(N2CCC(N3CCN(C)CC3)CC2)ccc1Nc1ncc(Cl)c(Nc2ccccc2S(=O)(=O)C(C)C)n1 [NVP-TAE684] (first compound 0.05 µM, partner dose 0.4 µM), for which the cell count was determined as 40%.
The value for `CCCCCCCCc1ccc(CCC(N)(CO)CO)cc1` [fingolimod] + O=C(O)C(=O)Nc1sc2c(c1C(=O)O)CCNC2 [TCS401] (first compound 10 µM, partner dose 8.33333 µM) was 6.14%.
The molecule `COc1cc2c(Oc3ccc4[nH]c(C)cc4c3F)ncnc2cc1OCCCN1CCCC1` [cediranib] + Cc1cc([N+](=O)[O-])ccc1NS(=O)(=O)c1cc(Cl)ccc1Cl [FH535] (first compound 2 µM, partner dose 5 µM) returned a cell count of 83.1%.
